# The list shows a part of the results.
# B1: rCnSL-proB (Clitocybe nebularis) (protein)
# chain: PTFSPIFALLAFLPFGTLASLLPQTQLVFRINPNLPGPNDVFVGYRGTNNVVGAIYERDGIKDTPMNNGADAELGPGSYITDDLFTAQIFASGSAGNNPGTTATVCKIYADGVQWRGAPKGYLPVLYFGNGQAAEQTRQTYLQGLDIPGTAIRFANLAKTPNQGPTAPRQMVVPSGGLQTLLKASCFPANHAALPQVLSYFNVRAALPPGWNIRTGPEFPNWTN
# What was measured:
# Assay in all cases: glycan array binding signal (z-score within array); higher = stronger binding
# Settings in all cases: glycan notation: IUPAC condensed, linker removed
# [1] = biological target: Neu5Ac(a2-6)GlcNAc(b1-4)GlcNAc(b1-4)GlcNAc
# Summary of the method: (§1)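 The binding signal is a Z-score computed within each array. Data were drawn from 3228 arrays in the Consortium for Functional Glycomics database, restricted to those with a known protein sequence. Scores were averaged over arrays of the same protein sequence at different concentrations or buffers, and over linkers, and negative values can be taken as non-binding.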
# Neu5Ac(a2-8)Neu5Ac = biological target: Neu5Ac(a2-8)Neu5Ac
# Summary of the method: as §1
# [2] = biological target: Neu5Ac(a2-8)Neu5Ac(a2-3)Gal(b1-3)GalNAc(b1-4)[Neu5Ac(a2-3)]Gal(b1-4)Glc
# Summary of the method: as §1
# [3] = biological target: Neu5Ac(a2-8)Neu5Ac(a2-3)Gal(b1-3)GalNAc(b1-4)[Neu5Ac(a2-8)Neu5Ac(a2-3)]Gal(b1-4)Glc
# Summary of the method: as §1
# [4] = biological target: Neu5Ac(a2-8)Neu5Ac(a2-3)Gal(b1-4)Glc
# Summary of the method: as §1
# [5] = biological target: Neu5Ac(a2-8)Neu5Ac(a2-3)Gal(b1-4)GlcNAc
# Summary of the method: as §1
# [6] = biological target: Neu5Ac(a2-8)Neu5Ac(a2-3)[Gal(b1-3)GalNAc(b1-4)]Gal(b1-4)Glc
# Summary of the method: as §1
# [7] = biological target: Neu5Ac(a2-8)Neu5Ac(a2-3)[GalNAc(b1-4)]Gal(b1-4)Glc
# Summary of the method: as §1
# [8] = biological target: Neu5Ac(a2-8)Neu5Ac(a2-8)Neu5Ac
# Summary of the method: as §1
# [9] = biological target: Neu5Ac(a2-8)Neu5Ac(a2-8)Neu5Ac(a2-3)Gal(b1-4)Glc
# Summary of the method: as §1
# [10] = biological target: Neu5Ac(a2-8)Neu5Ac(a2-8)Neu5Ac(a2-3)[Gal(b1-3)GalNAc(b1-4)]Gal(b1-4)Glc
# Summary of the method: as §1
# [11] = biological target: Neu5Ac(a2-8)Neu5Ac(a2-8)Neu5Ac(a2-3)[GalNAc(b1-4)]Gal(b1-4)Glc
# Summary of the method: as §1
# [12] = biological target: Neu5Ac(a2-8)Neu5Ac(a2-8)Neu5Ac(a2-8)Neu5Ac(a2-3)[GalNAc(b1-4)]Gal(b1-4)Glc
# Summary of the method: as §1
# [13] = biological target: Neu5Ac(a2-8)Neu5Gc(a2-3)Gal(b1-4)GlcNAc
# Summary of the method: as §1
# [14] = biological target: Neu5Ac(b2-6)Gal(b1-4)GlcNAc
# Summary of the method: as §1
# Neu5Ac(b2-6)GalNAc = biological target: Neu5Ac(b2-6)GalNAc
# Summary of the method: as §1
# [15] = biological target: Neu5Ac9Ac(a2-3)Gal(b1-3)GlcNAc
# Summary of the method: as §1
# [16] = biological target: Neu5Ac9Ac(a2-3)Gal(b1-4)GlcNAc
# Summary of the method: as §1
# [17] = biological target: Neu5Ac9Ac(a2-6)Gal(b1-4)GlcNAc
# Summary of the method: as §1
# [18] = biological target: Neu5Gc(a2-3)Gal(b1-3)GlcNAc
# Summary of the method: as §1
# [19] = biological target: Neu5Gc(a2-3)Gal(b1-3)[Fuc(a1-4)]GlcNAc
# Summary of the method: as §1
# Neu5Gc(a2-3)Gal(b1-4)Glc = biological target: Neu5Gc(a2-3)Gal(b1-4)Glc
# Summary of the method: as §1
# [20] = biological target: Neu5Gc(a2-3)Gal(b1-4)GlcNAc
# Summary of the method: as §1
# [21] = biological target: Neu5Gc(a2-3)Gal(b1-4)GlcNAc(b1-3)Gal(b1-4)GlcNAc(b1-2)Man(a1-3)[Neu5Gc(a2-3)Gal(b1-4)GlcNAc(b1-3)Gal(b1-4)GlcNAc(b1-2)Man(a1-6)]Man(b1-4)GlcNAc(b1-4)GlcNAc
# Summary of the method: as §1
# [22] = biological target: Neu5Gc(a2-3)Gal(b1-4)[Fuc(a1-3)]GlcNAc
# Summary of the method: as §1
# [23] = biological target: Neu5Gc(a2-6)Gal(b1-4)GlcNAc
# Summary of the method: as §1
# Neu5Gc(a2-6)GalNAc = biological target: Neu5Gc(a2-6)GalNAc
# Summary of the method: as §1
# [24] = biological target: Neu5Gc(a2-8)Neu5Ac(a2-3)Gal(b1-4)GlcNAc
# Summary of the method: as §1
# [25] = biological target: Neu5Gc(a2-8)Neu5Gc(a2-3)Gal(b1-4)GlcNAc
# Summary of the method: as §1
# [26] = biological target: Neu5Gc(a2-8)Neu5Gc(a2-3)Gal(b1-4)GlcNAc(b1-3)Gal(b1-4)GlcNAc
# Summary of the method: as §1
# [27] = biological target: Neu5Gc(a2-8)Neu5Gc(a2-6)Gal(b1-4)GlcNAc
# Summary of the method: as §1
# [28] = biological target: Neu5Gc(b2-6)Gal(b1-4)GlcNAc
# Summary of the method: as §1
binder,measurement,setting,value
B1,glycan array binding signal (z-score),[1],-0.665
same,glycan array binding signal (z-score),Neu5Ac(a2-8)Neu5Ac,-0.779
same,glycan array binding signal (z-score),[2],-0.495
same,glycan array binding signal (z-score),[3],-0.129
same,glycan array binding signal (z-score),[4],-0.59
same,glycan array binding signal (z-score),[5],-0.761
same,glycan array binding signal (z-score),[6],0.503
same,glycan array binding signal (z-score),[7],-0.432
same,glycan array binding signal (z-score),[8],-0.203
same,glycan array binding signal (z-score),[9],-0.271
same,glycan array binding signal (z-score),[10],0.882
same,glycan array binding signal (z-score),[11],0.31
same,glycan array binding signal (z-score),[12],-0.106
same,glycan array binding signal (z-score),[13],-0.929
same,glycan array binding signal (z-score),[14],0.221
same,glycan array binding signal (z-score),Neu5Ac(b2-6)GalNAc,-0.39
same,glycan array binding signal (z-score),[15],-0.873
same,glycan array binding signal (z-score),[16],2.62
same,glycan array binding signal (z-score),[17],-0.431
same,glycan array binding signal (z-score),[18],-0.332
same,glycan array binding signal (z-score),[19],-0.449
same,glycan array binding signal (z-score),Neu5Gc(a2-3)Gal(b1-4)Glc,-1.34
same,glycan array binding signal (z-score),[20],-0.525
same,glycan array binding signal (z-score),[21],-0.066
same,glycan array binding signal (z-score),[22],-0.511
same,glycan array binding signal (z-score),[23],0.015
same,glycan array binding signal (z-score),Neu5Gc(a2-6)GalNAc,-0.491
same,glycan array binding signal (z-score),[24],-0.556
same,glycan array binding signal (z-score),[25],0.262
same,glycan array binding signal (z-score),[26],-0.869
same,glycan array binding signal (z-score),[27],-0.298
same,glycan array binding signal (z-score),[28],-0.407
